Our source for the binding signal values is article PMC7819943, “Rice protein-binding microarrays: a tool to detect cis-acting elements near promoter regions in rice”.

The other results are listed elsewhere or left out.

This experiment concerns the target T1, OsWOX13 (Oryza sativa, UniProt Q5QMM3 1-267).
T1 sequence: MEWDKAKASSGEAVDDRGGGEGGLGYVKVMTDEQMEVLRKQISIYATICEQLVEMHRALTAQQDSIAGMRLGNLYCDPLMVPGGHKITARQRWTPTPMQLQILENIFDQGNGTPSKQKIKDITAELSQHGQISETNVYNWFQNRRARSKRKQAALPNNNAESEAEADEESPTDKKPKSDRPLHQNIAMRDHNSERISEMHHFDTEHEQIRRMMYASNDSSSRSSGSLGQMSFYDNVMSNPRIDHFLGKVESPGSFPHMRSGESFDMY
The experiment can be described thus: protein-binding microarray (RPBM); PBS, 2% BSA, 51.3 ng/ul salmon testes DNA, 50 uM zinc acetate, 200 nM TF, 25 C, 1 h; high values mean tight binding. The settings on record: protein: recombinant; tags: N-terminal polyhistidine and DsRed monomer fusion (pET32a); label: CyDye5-dUTP incorporated in the synthesized complementary strand; 3' TTTTT single-stranded linker to array surface; dsDNA, one strand shown. A digest of the protocol: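 Transcription factors, each fused N-terminally to a polyhistidine tag and DsRed, were expressed in E. coli BL21-CodonPlus and purified on Ni–NTA. A custom Agilent array was made double-stranded by primer extension with Cy5-dUTP and blocked with 2% BSA. It was incubated with 200 nM protein in PBS, 2% BSA, salmon testes DNA and 50 µM zinc acetate at 25 °C for 1 h, then washed. The binding signal is per-feature fluorescence intensity (arbitrary units) read on an Axon 4000B scanner.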
With “GATCTTAATTGGGCATGCTTTGGTTTTAATTAGTTGATCGCGGAGTCACCTAGTGCAG”, the binding signal is 35900 fluorescence intensity (a.u.). To “GCCACAAATTTTGACAATTTAACCCTTTGTAAAGACTATTCGGAGTCACCTAGTGCAG” belongs 5990 fluorescence intensity (a.u.); to “TCGAGGACATTAATTAGTGTCACTCTTATTGATATACTCTCGGAGTCACCTAGTGCAG”, 8800 fluorescence intensity (a.u.); to “ACTAACATGTCACGTAATTTCAATAAGCAAGATAGTAATACGGAGTCACCTAGTGCAG”, 7520 fluorescence intensity (a.u.).

With “CATCACTAATCACTATATCATTGGGCTAGTTTAGGTTGATCGGAGTCACCTAGTGCAG”, the binding signal was 5170 fluorescence intensity (a.u.).

Consider “CCGCGATTACAATTAGCGCCGGATTAACCCTGCAATTAGCCGGAGTCACCTAGTGCAG”, for which the binding signal is 20500 fluorescence intensity (a.u.).

Turning to “TCACAAAATAAACTAGATGAATGGAGCTAGGATTAGGCAGCGGAGTCACCTAGTGCAG”, the binding signal is 3440 fluorescence intensity (a.u.). The result for “CACCATTGATATTGATTAACCGCACCAAAGTTGTCTTTATCGGAGTCACCTAGTGCAG” reads 11000 fluorescence intensity (a.u.); that for “GTTCAATCTCATTTCAATTTTAGGATATCCGATCGATTGGCGGAGTCACCTAGTGCAG”, 10200 fluorescence intensity (a.u.). Turning to “ACTCTAATCACAAATATAAAAGAGGAAGCATGAGCCTAGTCGGAGTCACCTAGTGCAG”, the binding signal is 7240 fluorescence intensity (a.u.). Consider “CAAAATTTAAATAAATTATCGGCTGTAGGCGGATAGGGAGCGGAGTCACCTAGTGCAG”, for which the binding signal is 34300 fluorescence intensity (a.u.). The result for “ATGTAATGATGAATGATTTGAATGTCTTTGTTATGGATAACGGAGTCACCTAGTGCAG” reads 18700 fluorescence intensity (a.u.). To “CATTATTGATTGATTGATTCGCAGATTCGCCGCTGCCACCCGGAGTCACCTAGTGCAG” belongs 57200 fluorescence intensity (a.u.). The result for “CACTATCAATCATCATCAGCTGATAAAATTATCGTTCTAACGGAGTCACCTAGTGCAG” reads 13400 fluorescence intensity (a.u.); that for “ACCTCTTCTTCTCTTTGTCCCCTTCTCCATTTCCAAATTCCGGAGTCACCTAGTGCAG”, 6430 fluorescence intensity (a.u.). In the case of “CTCCACTAATCTAAAATTTGTTTAATGGATCATTGCATCACGGAGTCACCTAGTGCAG”, the binding signal was 16000 fluorescence intensity (a.u.).

On to “GTTCTCATCATCATCAATCCCATATAAACTGGATTAAGGCCGGAGTCACCTAGTGCAG”, for which the binding signal was 13200 fluorescence intensity (a.u.). To “ATTGAACTGACACATAGTAACAAATTACCTGTAGCAGTATCGGAGTCACCTAGTGCAG” belongs 3180 fluorescence intensity (a.u.); to “ACTAAATTGATGTTATAGATGTTGTTATATTATTCCAGAACGGAGTCACCTAGTGCAG”, 26200 fluorescence intensity (a.u.); to “GAAACATCAAATTAGTTCCATTAAATGTATTTTGATAACACGGAGTCACCTAGTGCAG”, 9680 fluorescence intensity (a.u.). The result for “GCGAGGTAAATTTATTAAGCCTAATAAATCCGTCGCTAGCCGGAGTCACCTAGTGCAG” reads 3780 fluorescence intensity (a.u.); that for “GCCATCTACTCATGTGATCACTCATTTATAATCTATATATCGGAGTCACCTAGTGCAG”, 3630 fluorescence intensity (a.u.). To “GGCCTCTGATTGCGTTGCGCCTTTCGTCGTGCCACGGCGTCGGAGTCACCTAGTGCAG” belongs 30100 fluorescence intensity (a.u.); to “ACCGTGTTGATAGAAATTTGTCATAGTCTCACATATTTTCCGGAGTCACCTAGTGCAG”, 10700 fluorescence intensity (a.u.). Turning to “GTGACTTCATTAATCTCCATGATGAATTTGCTGGCCCAATCGGAGTCACCTAGTGCAG”, the binding signal is 3210 fluorescence intensity (a.u.). Turning to “TGTAGATGATGATTTATTAAAATAAATAATCATAACACATCGGAGTCACCTAGTGCAG”, the binding signal is 29000 fluorescence intensity (a.u.). The result for “ATTAATGACCTAATCTCCAACTAAACTCCCTATCAACTTCCGGAGTCACCTAGTGCAG” reads 4830 fluorescence intensity (a.u.); that for “CATGATGCTTAATTTGCATAACGTTTTGCCCCTGGAGGGCCGGAGTCACCTAGTGCAG”, 13000 fluorescence intensity (a.u.). “GCCCAATCCGCCTGTCTCTCTCTCGTTCCCCTCCAATCCACGGAGTCACCTAGTGCAG”: the binding signal is 4180 fluorescence intensity (a.u.).

On to “CATTTCAATCTTTCAGTGGATGAACAATCAACCAGCAGAGCGGAGTCACCTAGTGCAG”, for which the binding signal is 4640 fluorescence intensity (a.u.).

As to “TAGAATGATGTGACTGAAAAGTTGAAAGTTTATGTGTGTACGGAGTCACCTAGTGCAG”, the binding signal was 5430 fluorescence intensity (a.u.). The result for “CAAATATTTATGATTGAATAAAGTACCGTTGTACAAAATTCGGAGTCACCTAGTGCAG” reads 11900 fluorescence intensity (a.u.). To “TCTGAAATTTCAGTCTGTCTCCAATTTTAGATGACCGAAACGGAGTCACCTAGTGCAG” belongs 9160 fluorescence intensity (a.u.). For “AACTCCTAACTTTCCATCACATCACATCACATACAAAACTCGGAGTCACCTAGTGCAG”, the binding signal is 4580 fluorescence intensity (a.u.).

Consider “ATTAATTGATTTTCTATTTCATATAGCTAATGTAACAGCTCGGAGTCACCTAGTGCAG”, for which the binding signal was 48800 fluorescence intensity (a.u.).

As for “AATTACTACTACTAATTAGCTAGTAGCTAGTTTCTGTGCTCGGAGTCACCTAGTGCAG”, the binding signal is 8060 fluorescence intensity (a.u.).

Consider “GACAGTGACCCATCAATCAATGCACAAGCAGCAGTGACGTCGGAGTCACCTAGTGCAG”, for which the binding signal is 16900 fluorescence intensity (a.u.). Take “CATAATTTGCATACAAATAGAATTTCCATCGAGAAATCTTCGGAGTCACCTAGTGCAG”: the binding signal was 3440 fluorescence intensity (a.u.). For “GCAATAATTACATATTTAACCTCATGCGAGCATACAACATCGGAGTCACCTAGTGCAG”, the binding signal is 16300 fluorescence intensity (a.u.). Turning to “GAAATAAGTAGTATTAATTGAAGTATGGATTAGTAGTGTTCGGAGTCACCTAGTGCAG”, the binding signal was 8510 fluorescence intensity (a.u.). To “CAATAGATTGCGTCATCTCTGTTCATTAGCAGTAGTTTTGCGGAGTCACCTAGTGCAG” belongs 26100 fluorescence intensity (a.u.). As to “AGATGGGAATCATTATCAATCTATCATCCTAAATATAAACCGGAGTCACCTAGTGCAG”, the binding signal is 4070 fluorescence intensity (a.u.).
